# From the supplement of paper PMC6609913
# Counter-ions that a name gives are not always drawn. ± gives the standard deviation of the averaged measurements. In all, about 1,300 compounds were measured (“normalised cell viability”: median about 1, lowest 2% from about 0.14 on). The list shows a part of the results.
# Test system: V-C8 (BRCA2-deficient hamster cells)
# Experiment: normalised cell viability (fraction of plate median); higher = more viable cells (less toxic)
# Details: 5 µM
# Procedure, shortened: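 Library drugs, held as 10 mM stocks in DMSO, were diluted to 5 μM in 100 μl medium and added to 96-well plates of V-C8 hamster cells, either lacking BRCA2 or with BRCA2 restored, 24 h after seeding. Plates ran for 3 days (screen 1) or 6 days (screen 2), alongside solvent-only wells. Viability came from a resazurin readout, median-plate normalised, as the mean of triplicate wells.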
Structure (SMILES),normalised cell viability (treatment time: 3 days),normalised cell viability (treatment time: 6 days)
O=C(O)Cc1ccc(-c2ccccc2)cc1 [Felbinac],1.02 ± 0.011,1.06 ± 0.043
Clc1ccc(CCC(Cn2ccnc2)Sc2c(Cl)cccc2Cl)cc1 (stereo unspecified) [Butoconazole nitrate],0.839 ± 0.015,0.801 ± 0.028
N#Cc1ccc(C(c2ccc(C#N)cc2)n2cncn2)cc1 [Letrozole],1.07 ± 0.052,1.09 ± 0.043
C[N+]1(C)CCC(OC(=O)C(O)(c2ccccc2)C2CCCC2)C1 (stereo unspecified) [Glycopyrrolate],1.11 ± 0.12,1.06 ± 0.04
N=C(NCCCCCCNC(=N)NC(=N)Nc1ccc(Cl)cc1)NC(=N)Nc1ccc(Cl)cc1 [Chlorhexidine],0.129 ± 0.0057,0.101 ± 0.0054
NCc1ccccc1CC(=O)N[C@@H]1C(=O)N2C(C(=O)O)=C(CSc3nnnn3CC(=O)O)CS[C@H]12 [Ceforanide],1.02 ± 0.073,1.21 ± 0.22
CN1CCN(C2=Nc3ccccc3Oc3ccc(Cl)cc32)CC1 [Loxapine succinate],1.17 ± 0.063,1.15 ± 0.03
COc1ccc(CC(C)NCC(O)c2ccc(O)c(NC=O)c2)cc1 (stereo unspecified) [Formoterol fumarate],1.16 ± 0.21,0.96 ± 0.068
CC(=O)[C@@]12O[C@](C)(c3ccccc3)O[C@@H]1C[C@H]1[C@@H]3CCC4=CC(=O)CC[C@]4(C)[C@H]3CC[C@@]12C [Algestone acetophenide],0.915 ± 0.05,0.945 ± 0.094
COC(=O)[C@H](c1ccccc1Cl)N1CCc2sccc2C1 [Clopidogrel],1.04 ± 0.05,0.989 ± 0.061
C[C@]12CCC(=O)C=C1CC[C@@H]1[C@@H]2C(=O)C[C@@]2(C)[C@H]1CC[C@]2(O)C(=O)CO [Cortisone],1.07 ± 0.048,1.07 ± 0.021
COCCCC/C(=N\OCCN)c1ccc(C(F)(F)F)cc1 [Fluvoxamine maleate],0.975 ± 0.024,0.993 ± 0.02
CN(C)[C@@H]1C(O)=C(C(N)=O)C(=O)[C@@]2(O)C(O)=C3C(=O)c4c(O)cccc4[C@@](C)(O)[C@H]3C[C@@H]12 [Tetracycline hydrochloride],1.06 ± 0.021,0.942 ± 0.058
C[C@H](N[C@@H](CCc1ccccc1)C(=O)O)C(=O)N1CCC[C@H]1C(=O)O [Enalaprilat dihydrate],1.07 ± 0.028,1.07 ± 0.045
CCc1ccc(CCOc2ccc(CC3SC(=O)NC3=O)cc2)nc1 (stereo unspecified) [Pioglitazone],0.32 ± 0.013,0.208 ± 0.0067
Cc1ccc(N(CC2=NCCN2)c2cccc(O)c2)cc1 [Phentolamine hydrochloride],1.01 ± 0.032,1 ± 0.021
Cc1c(Cl)cccc1Nc1ccccc1C(=O)O [Tolfenamic acid],1.04 ± 0.017,1.03 ± 0.04

Structure (SMILES),normalised cell viability (treatment time: 3 days),normalised cell viability (treatment time: 6 days)
CCCSc1ccc2[nH]c(NC(=O)OC)nc2c1 [Albendazole],0.184 ± 0.0091,0.192 ± 0.026
CO[C@H]1/C=C/O[C@@]2(C)Oc3c(C)c(O)c4c(O)c(c(/C=N/N5CCN(C)CC5)c(O)c4c3C2=O)NC(=O)/C(C)=C\C=C\[C@H](C)[C@H](O)[C@@H](C)[C@@H](O)[C@@H](C)[C@H](OC(C)=O)[C@@H]1C [Rifampicin],1.03 ± 0.038,1.02 ± 0.033
CC[C@H]1OC(=O)[C@H](C)[C@@H](O[C@H]2C[C@@](C)(OC)[C@@H](O)[C@H](C)O2)[C@H](C)[C@@H](O[C@@H]2O[C@H](C)C[C@H](N(C)C)[C@H]2O)[C@](C)(O)C[C@@H](C)C(=O)[C@H](C)[C@@H](O)[C@]1(C)O [Erythromycin],0.962 ± 0.027,0.998 ± 0.023
O=C1c2ccccc2C(=O)C1c1ccccc1 [Phenindione],0.97 ± 0.04,0.942 ± 0.059
Clc1ccc2c(c1)C(N1CCNCC1)=Nc1ccccc1O2 [Amoxapine],0.533 ± 0.035,0.647 ± 0.019
O=C(O)CCc1nc(-c2ccccc2)c(-c2ccccc2)o1 [Oxaprozin],0.975 ± 0.16,1.24 ± 0.25
c1ccc(CC2=NCCN2)cc1 [Tolazoline hydrochloride],1 ± 0.025,0.98 ± 0.038
CC(C)(Oc1ccc(CCNC(=O)c2ccc(Cl)cc2)cc1)C(=O)O [Bezafibrate],0.404 ± 0.075,0.513 ± 0.022
OCCN1CCN(CCCN2c3ccccc3Sc3ccc(C(F)(F)F)cc32)CC1 [Fluphenazine dihydrochloride],0.666 ± 0.062,0.724 ± 0.14
CC(=O)OCC(=O)NCCCOc1cccc(CN2CCCCC2)c1 [Roxatidine Acetate HCl],0.1484 ± 0.0012,0.149 ± 0.008
CCn1cc(C(=O)O)c(=O)c2cc(F)c(N3CCNCC3)nc21 [Enoxacin],0.86 ± 0.018,0.916 ± 0.026
CCCc1ncc(C[n+]2ccccc2C)c(N)n1 [Amprolium hydrochloride],1.1 ± 0.25,1 ± 0.053
CC(C(=O)O)c1cccc(Oc2ccccc2)c1 (stereo unspecified) [Fenoprofen calcium salt dihydrate],1.05 ± 0.086,1.04 ± 0.062
Oc1ccc(C2CNCCc3c2cc(O)c(O)c3Cl)cc1 (stereo unspecified) [Fenoldopam],1.04 ± 0.046,0.956 ± 0.078
CS(=O)(=O)c1ccc([C@@H](O)[C@@H](CF)NC(=O)C(Cl)Cl)cc1 [Florfenicol],0.65 ± 0.048,0.618 ± 0.045
CCN(CC)CCCC(C)Nc1ccnc2cc(Cl)ccc12 (stereo unspecified) [Chloroquine diphosphate],0.756 ± 0.026,0.76 ± 0.0079
